T1: Human-NKP30-His (human, UniProt O14931 19-135)
T1 construct: also called NKP30 protein; not shown: His tag
T1 sequence (looked up): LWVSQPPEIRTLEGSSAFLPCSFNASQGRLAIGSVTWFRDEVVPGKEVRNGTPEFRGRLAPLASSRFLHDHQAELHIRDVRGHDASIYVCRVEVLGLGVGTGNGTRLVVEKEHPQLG


Legend:
[1] = molecular target: T2, TGFβ1 (UniProt P01137 partial chain, limits assumed); assay: ELISA, TGFb1 coated at 1 ug/mL, HRP goat anti-human IgG-Fc
T2 construct: also called TGFβ1 protein
Procedure: TGFβ1 was diluted to 1 μg/mL with PBS buffer at pH 7.4, added into the 96-well ELISA plate at 100 μL per well, coated overnight at 4° C., and blocked with 1% BSA blocking solution for 1 hour. The plate was washed 3 times with PBST, and the constructed expressing antibodies were diluted to 20 µg/mL with 0.5% BSA sample diluent as the starting concentration, and then diluted by 3-fold gradient (11 gradients in total). A negative control (blank well and IgG1 isotype control) and a positive control were set, and the positive control was TGF-βR2 (Acro, Cat: TG2-H5252), and incubated at 37° C. for 1 h at 100 μL per well. The plate was washed 3 times with PBST, and then HRP-labelled goat anti-human IgG-Fc was diluted with the sample diluent at 1:10000. 100 μL was added into each well, and incubated at room temperature for 1 hour. The plate was washed 4 times with PBST, and 100 μL of TMB substrate was added into each well, and incubated at room temperature without light for 10 minutes. 100 μL of 1 M HCl solution was added into each well to terminate the color development reaction. The absorbance value of each well in the 96-well plate was determined by selecting the wavelength of 450 nm and the reference wavelength of 570 nm on a multifunctional enzyme marker, and the absorbance value (OD)=OD₄₅₀ₙₘ−OD₅₇₀ₙₘ. The logarithm of the concentration of the constructed antibodies were taken as the abscissa, and the measured absorbance value of each well was taken as the ordinate, and the Sigmoidaldose-response (Variable Slope) method (GraphPad Prism software, GraphPad Software, San Diego, California) was selected for nonlinear regression to obtain the binding curve of the target antibodies to the TGFβ1 protein.

[2] = molecular target: T1, Human-NKP30-His; assay: ELISA, Human-NKP30-His coated at 0.5 ug/mL, HRP goat anti-human IgG-Fc
Procedure: Human-NKP30-His was diluted to 0.5 μg/mL with PBS buffer at pH 7.4, added into the 96-well ELISA plate at 100 μL per well, coated overnight at 4° C., and blocked with 1% BSA blocking solution for 1 hour. The plate was washed 3 times with PBST, and the constructed antibodies were diluted to 10 μg/mL with 0.5% BSA sample diluent as the starting concentration, and then diluted by 3-fold gradient (11 gradients in total). A negative control (blank well and IgG1 isotype control) and a positive control were set, and the positive control was a NKP30 humanized antibody (sequence shown in SEQ ID No.32), and incubated at 37° C. for 1 h at 100 μL per well. The plate was washed 3 times with PBST, and then HRP-labelled goat anti-human IgG-Fc was diluted with the sample diluent at 1:20000. 100 μL was added into each well, and incubated at room temperature for 1 hour. The plate was washed 4 times with PBST, and 100 μL of TMB substrate was added into each well, and incubated at room temperature without light for 10 minutes. 100 μL of 1 M HCl solution was added into each well to terminate the color development reaction. The absorbance value of each well in the 96-well plate was determined by selecting the wavelength of 450 nm and the reference wavelength of 570 nm on a multifunctional enzyme marker, and the absorbance value (OD)=OD₄₅₀ₙₘ−OD₅₇₀ₙₘ. The logarithm of the concentration of the constructed antibodies were taken as the abscissa, and the measured absorbance value of each well was taken as the ordinate, and the Sigmoidaldose-response (Variable Slope) method (GraphPad Prism software, GraphPad Software, San Diego, California) was selected for nonlinear regression to obtain the binding curve of the target antibody to NKP30 protein.

Sequence of TGFβ1 (P01137 279-390 limits assumed): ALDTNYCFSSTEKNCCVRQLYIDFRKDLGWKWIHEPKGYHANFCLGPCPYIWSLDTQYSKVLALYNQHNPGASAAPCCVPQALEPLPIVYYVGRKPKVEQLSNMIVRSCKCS

EC50 (read off the curve) [1]	EC50 (read off the curve) [2]	binding result [2]	Binder
~0.05 µg/mL	~0.06 µg/mL		CNT-D (other, also called constructed antibody CNT-D; trifunctional antibody) light 1: EVQLVESGGGLVQPGGSLRLSCAASGITFSRSVMGWFRQAPGKLRELVAGITSDDNTDYADSVKGRFTISRDNSKNTLYLQMNSLRAEDTAVYYCNILPDSRLGWGQGTLVTVSSGGGGSGGGGSGGGGSEVQLVESGGGLVKPGGSLKLSCTASGFTFSSYVMSWVRQTPEKRLEWVATINDGGSYTYYPDNLKGRFTISRDNAKNNLYLQMSHLRSEDTARYYCSVLRRGNAMDYWGQGTSVTVSSRTVAAPSVFIFPPSDEQLKSGTASVVCLLNNFYPREAKVQWKVDNALQSGNSQESVTEQDSKDSTYSLSSTLTLSKADYEKHKVYACEVTHQGLSSPVTKSFNRGEC heavy 1: DIVMTQSPSSLTATARERVTMSCKSSQSLLNSGNQKNYLTWYQQKPGQPPKLLIYWASTRESGVPDRFTGSGSGTDFTLTVSSVQAEDLAVYYCQNAYFYPFTFGSGTKLEIK[human IgG1 constant region with changes not spelt out]GGSGGGGSGGGGSGGGGSGIPPHVQKSVNNDMIVTDNNGAVKFPQLCKFCDVRFSTCDNQKSCMSNCSITSICEKPQEVCVAVWRKNDENITLETVCHDPKLPYHDFILEDAASPKCIMKEKKKPGETFFMCSCSSDECNDNIIFSEEYNTSNPD heavy 2: EVQLVESGGGLVKPGGSLKLSCTASGFTFSSYVMSWVRQTPEKRLEWVATINDGGSYTYYPDNLKGRFTISRDNAKNNLYLQMSHLRSEDTARYYCSVLRRGNAMDYWGQGTSVTVSS[human IgG1 constant region with changes not spelt out]GGSGGGGSGGGGSGGGGSGIPPHVQKSVNNDMIVTDNNGAVKFPQLCKFCDVRFSTCDNQKSCMSNCSITSICEKPQEVCVAVWRKNDENITLETVCHDPKLPYHDFILEDAASPKCIMKEKKKPGETFFMCSCSSDECNDNIIFSEEYNTSNPD light 2: DIVMTQSPSSLTATARERVTMSCKSSQSLLNSGNQKNYLTWYQQKPGQPPKLLIYWASTRESGVPDRFTGSGSGTDFTLTVSSVQAEDLAVYYCQNAYFYPFTFGSGTKLEIKRTVAAPSVFIFPPSDEQLKSGTASVVCLLNNFYPREAKVQWKVDNALQSGNSQESVTEQDSKDSTYSLSSTLTLSKADYEKHKVYACEVTHQGLSSPVTKSFNRGEC
~0.1 µg/mL	~0.05 µg/mL		CNT-E (other, also called constructed antibody CNT-E; trifunctional antibody) light: DIVMTQSPSSLTATARERVTMSCKSSQSLLNSGNQKNYLTWYQQKPGQPPKLLIYWASTRESGVPDRFTGSGSGTDFTLTVSSVQAEDLAVYYCQNAYFYPFTFGSGTKLEIKRTVAAPSVFIFPPSDEQLKSGTASVVCLLNNFYPREAKVQWKVDNALQSGNSQESVTEQDSKDSTYSLSSTLTLSKADYEKHKVYACEVTHQGLSSPVTKSFNRGEC heavy 1: EVQLVESGGGLVQPGGSLRLSCAASGITFSRSVMGWFRQAPGKLRELVAGITSDDNTDYADSVKGRFTISRDNSKNTLYLQMNSLRAEDTAVYYCNILPDSRLGWGQGTLVTVSSGGGGSGGGGSGGGGSEVQLVESGGGLVKPGGSLKLSCTASGFTFSSYVMSWVRQTPEKRLEWVATINDGGSYTYYPDNLKGRFTISRDNAKNNLYLQMSHLRSEDTARYYCSVLRRGNAMDYWGQGTSVTVSS[human IgG1 constant region with changes not spelt out]GGSGGGGSGGGGSGGGGSGIPPHVQKSVNNDMIVTDNNGAVKFPQLCKFCDVRFSTCDNQKSCMSNCSITSICEKPQEVCVAVWRKNDENITLETVCHDPKLPYHDFILEDAASPKCIMKEKKKPGETFFMCSCSSDECNDNIIFSEEYNTSNPD heavy 2: EVQLVESGGGLVKPGGSLKLSCTASGFTFSSYVMSWVRQTPEKRLEWVATINDGGSYTYYPDNLKGRFTISRDNAKNNLYLQMSHLRSEDTARYYCSVLRRGNAMDYWGQGTSVTVSS[human IgG1 constant region with changes not spelt out]GGSGGGGSGGGGSGGGGSGIPPHVQKSVNNDMIVTDNNGAVKFPQLCKFCDVRFSTCDNQKSCMSNCSITSICEKPQEVCVAVWRKNDENITLETVCHDPKLPYHDFILEDAASPKCIMKEKKKPGETFFMCSCSSDECNDNIIFSEEYNTSNPD
~0.5 µg/mL		binds	CNT-C (other, also called constructed antibody CNT-C; trifunctional antibody) light: DIVMTQSPSSLTATARERVTMSCKSSQSLLNSGNQKNYLTWYQQKPGQPPKLLIYWASTRESGVPDRFTGSGSGTDFTLTVSSVQAEDLAVYYCQNAYFYPFTFGSGTKLEIKRTVAAPSVFIFPPSDEQLKSGTASVVCLLNNFYPREAKVQWKVDNALQSGNSQESVTEQDSKDSTYSLSSTLTLSKADYEKHKVYACEVTHQGLSSPVTKSFNRGECGGGGSGGGGSGGGGSGGGGSEVQLVESGGGLVQPGGSLRLSCAASGITFSRSVMGWFRQAPGKLRELVAGITSDDNTDYADSVKGRFTISRDNSKNTLYLQMNSLRAEDTAVYYCNILPDSRLGWGQGTLVTVSS heavy: EVQLVESGGGLVKPGGSLKLSCTASGFTFSSYVMSWVRQTPEKRLEWVATINDGGSYTYYPDNLKGRFTISRDNAKNNLYLQMSHLRSEDTARYYCSVLRRGNAMDYWGQGTSVTVSS[human IgG1 constant region not spelt out]GGSGGGGSGGGGSGGGGSGIPPHVQKSVNNDMIVTDNNGAVKFPQLCKFCDVRFSTCDNQKSCMSNCSITSICEKPQEVCVAVWRKNDENITLETVCHDPKLPYHDFILEDAASPKCIMKEKKKPGETFFMCSCSSDECNDNIIFSEEYNTSNPD
